According to PubChem BioAssay AID1030 (National Center for Advancing Translational Sciences (NCATS), 2008):
The campaign covered roughly 220,000 compounds. About 16,000 (7.3%) were called active. Inconclusive results, whose numbers are uncertain, are shown with a selection of clear calls. Calls follow the shape of the dose curve; as a rule, active = well fitted inhibition curve with a large enough effect (not every such curve was filed as active); inconclusive = small, poorly fitted or top-dose-only effect, or another doubt; inactive = no such curve, though single readings can be large or run the other way. No potency is given beside an inconclusive call; the fits are too rough. The source holds several records for some structures; these can differ, active in one and inactive in another.

Biological target: Aldehyde dehydrogenase 1A1 (Homo sapiens) (UniProt P00352)
Assay: qHTS Assay for Inhibitors of Aldehyde Dehydrogenase 1 (ALDH1A1)
Settings: Purified ALDH1A1, NADH fluorescence, propionaldehyde substrate; series mostly up to 75.3 µM
Potency is read from the fitted curve at half-maximal effect; tags tell the direction and shape of the fitted curve.

Sequence of UniProt P00352 (P00352 whole entry, looked up): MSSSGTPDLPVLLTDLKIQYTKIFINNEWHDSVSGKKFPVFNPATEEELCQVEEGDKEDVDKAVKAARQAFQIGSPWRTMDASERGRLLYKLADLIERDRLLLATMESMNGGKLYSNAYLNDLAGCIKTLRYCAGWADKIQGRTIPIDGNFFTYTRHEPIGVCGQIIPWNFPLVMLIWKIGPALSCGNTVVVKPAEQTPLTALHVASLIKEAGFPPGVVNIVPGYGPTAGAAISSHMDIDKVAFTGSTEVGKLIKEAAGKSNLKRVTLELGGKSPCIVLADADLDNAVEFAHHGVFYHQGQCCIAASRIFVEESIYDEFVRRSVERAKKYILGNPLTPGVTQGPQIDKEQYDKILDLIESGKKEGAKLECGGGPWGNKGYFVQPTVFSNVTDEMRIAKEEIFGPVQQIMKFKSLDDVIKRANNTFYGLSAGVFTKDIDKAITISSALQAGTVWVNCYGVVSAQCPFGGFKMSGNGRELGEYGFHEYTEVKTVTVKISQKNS

Row | Compound | Potency
1 | CN1CCN(C(=O)/C(=C/c2cccs2)NC(=O)c2ccco2)CC1 | inactive
2 | CC(C)(C)C(=O)NC(=S)Nc1cc(C(F)(F)F)ccc1N1CCOCC1 | active: 18.9 µM
3 | O=C1[C@@H]2[C@@H]3C[C@@H]([C@H]4ON=C(c5ccc(Cl)cc5Cl)[C@@H]34)[C@@H]2C(=O)N1C1CCCCC1 | inconclusive [inhibitor, single point]
4 | CC1CCCCN1c1nnc(N)s1 (centres undefined) | inconclusive [inhibitor, partial curve]
5 | Cc1nc(NC(=O)c2ccccc2)sc1-c1csc(NCc2ccccc2)n1 | inconclusive [inhibitor, single point]
6 | O=C(COC(=O)CCNS(=O)(=O)c1ccc2c(c1)OCCO2)NC1CCCc2ccccc21 (centres undefined) | inconclusive [inhibitor, single point]
7 | CCCCC#Cc1nc(N)c2ncn([C@@H]3O[C@H](C(=O)NCC)[C@@H](O)[C@H]3O)c2n1 | active: 7.94 µM
8 | Cc1cccc2nc(-c3cccnc3)c(NCCC(C)C)n12 | inconclusive [inhibitor, single point]
9 | CC(=O)N(/N=C/c1cccc(C)c1)c1nc(-c2ccc(Br)cc2)cs1 | inconclusive [inhibitor, single point]
10 | CCCCCCOC(=O)Sc1nc2ccccc2o1 | inconclusive [inhibitor, single point]
11 | CS(=O)(=O)N1CCC(Oc2ccccc2C(=O)NCCCc2cccnc2)CC1 | inactive
12 | CC(C)NC(=O)N1CCC2(CC1)CCN(S(=O)(=O)c1ccccc1)CC2 | inactive
13 | COc1ccc(NC(=O)COC(=O)CCCOc2ccc(Cl)cc2Cl)cc1 | inactive
14 | Cc1ccc(C(=O)N(CC(=O)Nc2ccc(Cl)c(Cl)c2)Cc2ccco2)cc1 | inconclusive [inhibitor, partial curve]
15 | CNc1cc(-c2ccccc2C(F)(F)F)ncn1 | inactive
16 | N[C@@H](Cn1cc(F)c(=O)[nH]c1=O)C(=O)O | inactive
17 | c1ccc(Nc2ncnc3ccc(-c4ccoc4)cc23)cc1 | inconclusive [inhibitor, single point]
18 | Cc1cn([C@H]2C[C@H](O)[C@@H](CO)O2)c(=O)[nH]c1=O | inactive
19 | Cc1nc(-n2[nH]c3c(c2=O)CCCC3)[nH]c(=O)c1Cc1ccccc1 | inconclusive [inhibitor, single point]
20 | CCCC(=O)Nc1ccc2oc(-c3ccncc3)nc2c1 | inconclusive [inhibitor, single point]
21 | Clc1cccc(CSc2ccc(-c3ccco3)nn2)c1 | active: 25.1 µM
22 | C[C@@H](C(=O)NCc1cccc2ccccc12)[C@H]1C[C@]1(C)[C@H](NC(=O)OCc1ccccc1)c1ccccc1 | inconclusive [inhibitor, partial curve]
23 | CCc1nnc(NC(=O)C2CC(=O)N(c3ccc4c(c3)OCCO4)C2)s1 (centres undefined) | inconclusive [inhibitor, single point]

Row | Compound | Potency
24 | COC(=O)c1ccc(NC(=O)C2CCCN2S(=O)(=O)c2ccc(OC)cc2)cc1 (centres undefined) | inconclusive [inhibitor, single point]
25 | O=Cc1ccc(Cl)c(Cl)c1 | inconclusive [inhibitor, partial curve]
26 | CC(=O)Nc1nc2n(n1)C(c1ccccc1)C=C(c1ccccc1)N2 (centres undefined) | inconclusive [inhibitor, single point]
27 | CN(CCc1ccccn1)C(=O)CC1C(=O)NCCN1Cc1ccc(-c2ccccc2)cc1 (centres undefined) | inconclusive [inhibitor, single point]
28 | O=c1c(-c2cccs2)nc2cnc(Nc3ccccc3)nc2n1C[C@H]1CCCO1 | inconclusive [inhibitor, single point]
29 | Oc1ccc2ccccc2c1C=NC12CN3CCN(CN(C3)C1)C2 | inconclusive [inhibitor, single point]
30 | CCOC(=O)c1cnc2ccc(OCC)cc2c1N1CCN(C)CC1 | inconclusive [inhibitor, single point]
31 | Clc1ccc(-c2ncc3ccccn23)cc1 | inconclusive [inhibitor, single point]
32 | CC1(Cn2ccnn2)[C@H](C(=O)O)N2C(=O)C[C@H]2S1(=O)=O (some centres undefined) | inactive
33 | Cc1ccc2c(c1)C(O)(c1c(C)[nH]c3ccccc13)C(=O)N2 (centres undefined) | inconclusive [inhibitor, single point]
34 | CCc1ccc(N2C(=O)CN(Cc3cc(OC)c(OC)c(OC)c3)C2=S)cc1 | inactive
35 | O=C1C2=CC[C@H]3C(=O)N(C4CCCCC4)C(=O)[C@@H]3[C@@H]2[C@H](O)[C@@H]2O[C@H]12 | inconclusive [inhibitor, single point]
36 | CN(C)c1ccc(/C=N/N=C2/SC(CC(=O)O)C(=O)N2c2ccc(O)cc2)cc1 (centres undefined) | inconclusive [inhibitor, partial curve]
37 | O=C(NCCN=C1NS(=O)(=O)c2ccccc21)c1ccc2nccnc2c1 | inactive
38 | O=C(COC(=O)c1ccc(-c2ccccc2)cc1)Nc1ccccc1-c1ccccc1 | inconclusive [inhibitor, single point]
39 | CC1CCC/C(=N\NC(=O)Nc2ccccc2)C1 (centres undefined) | inconclusive [inhibitor, single point]
40 | CCCCn1nnc(NC(=O)c2sc3cc(Cl)ccc3c2Cl)n1 | inconclusive [inhibitor, single point]
41 | Cc1ccc(N2C(=O)CC(NNC(=O)c3cccc(S(=O)(=O)N4CCCC4)c3)C2=O)cc1 (centres undefined) | inconclusive [inhibitor, partial curve, poor fit]
42 | COC1=C(Nc2ccc(O)cc2)C(=O)c2ccccc2C1=O | active: 17.8 µM
43 | Cc1ccc(-n2cc(CNC(C)Cn3cncn3)c(-c3ccc(F)cc3)n2)cc1 (centres undefined) | inconclusive [inhibitor, single point]
44 | COc1ccc(S(=O)(=O)N2CCSC2c2ccc(OC)c(OC)c2)cc1 (centres undefined) | inconclusive [inhibitor, partial curve]
45 | Cc1sc(-n2c(C)cc(/C=C3\SC(=S)NC3=O)c2C)c(C#N)c1C | inactive
46 | CCCC1=NN2C(=N)/C(=C\c3cc(C)n(-c4cc(C)cc(C)c4)c3C)C(=O)N=C2S1 | inconclusive [inhibitor, partial curve]

Row | Compound | Potency
47 | COc1ccc(S(=O)(=O)N(CC(=O)NCc2cccnc2)Cc2ccccc2)cc1 | inconclusive [inhibitor, partial curve]
48 | Cc1cccc(-c2oc(C)c(C)[n+]2[O-])c1 | active: 3.55 µM
49 | CCC(C)n1c(-c2cccs2)nc2nc3ccccc3nc21 (centres undefined) | inconclusive [inhibitor, partial curve]
50 | C/C(N)=C(/C#N)C(=O)CSc1nc2ccccc2c(=O)n1-c1ccccc1C | active: 28.2 µM
51 | O=C(Nc1ccc(NC(=O)c2cccs2)cc1Cl)c1ccco1 | inconclusive [inhibitor, single point]
52 | COc1cc2c(cc1OC)CN(C(=O)CSc1nc3[nH]ncc3c(=O)n1-c1ccccc1)CC2 | active: 28.2 µM
53 | CCNC(=S)NNC(=O)c1cc(-c2ccc(OCC)cc2)nc2ccccc12 | inconclusive [inhibitor, partial curve]
54 | Cc1ccc2cc(C=O)c(Cl)nc2c1 | inconclusive [inhibitor, partial curve]
55 | COc1ccc(C2=NOC(C(=O)Nc3ccc4c(c3)OCO4)C2)cc1OC (centres undefined) | inactive
56 | c1ccc(-c2nc3nc4ccccc4nc3n2Cc2ccco2)cc1 | inconclusive [inhibitor, partial curve]
57 | COc1ccc(-c2cc(C(=O)N3CCc4ccccc4C3)no2)cc1OC | inconclusive [inhibitor, single point]
58 | Cc1ccccc1NC1=C(C(=O)c2ccccc2)N(C)S(=O)(=O)c2ccccc21 | inactive
59 | Cn1c(=O)[nH]c(=O)c2c1nc(CN1CCN(c3ccccc3F)CC1)n2CCCc1ccccc1 | active: 3.16 µM
60 | CCCCCCCC#Cc1ccccc1/C=N/S(=O)c1ccc(C)cc1 (centres undefined) | active: 20 µM
61 | O=C(CSc1ccc(-c2nc3ccccc3[nH]2)cn1)Nc1ccc2c(c1)OCCO2 | inconclusive [inhibitor, partial curve]
62 | COC(=O)COc1cc(Cl)c(C=O)cc1OC | inactive
63 | Cc1cc(C)c2c(=O)[nH]c(SCC(=O)c3ccc(C)c(C)c3)nc2n1 | inconclusive [inhibitor, single point]
64 | NS(=O)(=O)c1ccc(NC(=O)CSC2=NC(=O)C(c3ccccc3)C(=O)N2)cc1 (centres undefined) | inconclusive [inhibitor, single point]
65 | CC1(C)CC(=O)C2=C(C1)Nc1cc3c(cc1C2c1ccc2c(c1)OCO2)OCO3 (centres undefined) | inconclusive [inhibitor, partial curve]
66 | O=C(N/N=C/c1ccc(N2CCOCC2)o1)c1cccc(F)c1 | inconclusive [inhibitor, single point]
67 | C=CCNc1oc(-c2cccc3ccccc23)nc1C#N | inconclusive [inhibitor, partial curve]
68 | Cc1cc(/C=C2/NC(=O)N(c3ccccc3)C2=O)c(C)n1C(C)C | inconclusive [inhibitor, single point]
69 | Cc1ccc(OCC(O)CN2CCN(Cc3ccc4c(c3)OCO4)CC2)c(C)c1 (centres undefined) | inactive
